# The supplement of paper PMC8728848
# Some of the results follow.
# B1: Tamarinin (protein)
# chain: CDDSARAGNIVVYWGQGGSDNSEGSLKEACKSGHYNMIVLQQLIVYDDGRDPDLNLGAHCSDCTKLEEQIKYCQNKDIKILLQIGQVVPTQEDVKDVTKNLSEYLLKNFFSGKSGPLGEVYLNGIDIASVPEGNNLKFDELVEALNDSSTERRIYLSASPLCVYPDYYLNKAIQTEKLDFLFVQFFYQNPCIYTEGNPENLFEAMKTWTKNVPESMIFMALPATPNLDGYIPPRVLNKEILPAVSEASNFAGVMIFDRYFDRFRKYSSKIK
# Experiments:
# Assay in all cases: glycan array binding signal (z-score within array); higher = stronger binding
# Conditions in all cases: glycan notation: IUPAC condensed, linker removed
# [1] = molecular target: Gal(b1-4)GlcNAc(b1-3)Gal(b1-4)GlcNAc(b1-6)[Gal(b1-3)]GalNAc
# Method in brief: (§1)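 From the Consortium for Functional Glycomics database, 3228 arrays were curated, keeping only those whose protein sequence was available. Binding is given as a within-array Z-score averaged across arrays sharing a protein sequence and across linkers. Negative Z-scores can be read as non-binding.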
# [2] = molecular target: Gal(b1-4)GlcNAc(b1-3)Gal(b1-4)[Fuc(a1-3)]GlcNAc(b1-3)Gal(b1-4)[Fuc(a1-3)]GlcNAc
# Method in brief: as §1
# [3] = molecular target: Gal(b1-4)GlcNAc(b1-3)GalNAc
# Method in brief: as §1
# [4] = molecular target: Gal(b1-4)GlcNAc(b1-3)[Fuc(a1-3)GlcNAc(b1-6)]Gal(b1-4)Glc
# Method in brief: as §1
# [5] = molecular target: Gal(b1-4)GlcNAc(b1-3)[Gal(b1-4)GlcNAc(b1-6)]Gal(b1-4)GlcNAc
# Method in brief: as §1
# [6] = molecular target: Gal(b1-4)GlcNAc(b1-3)[GlcNAc(b1-6)]Gal(b1-4)GlcNAc
# Method in brief: as §1
# [7] = molecular target: Gal(b1-4)GlcNAc(b1-6)Gal(b1-4)GlcNAc
# Method in brief: as §1
# [8] = molecular target: Gal(b1-4)GlcNAc(b1-6)GalNAc
# Method in brief: as §1
# [9] = molecular target: Gal(b1-4)GlcNAc(b1-6)[Gal(b1-3)]GalNAc
# Method in brief: as §1
# [10] = molecular target: Gal(b1-4)GlcNAc(b1-6)[Gal(b1-4)GlcNAc(b1-3)]GalNAc
# Method in brief: as §1
# Gal(b1-4)GlcNAc6P = molecular target: Gal(b1-4)GlcNAc6P
# Method in brief: as §1
# Gal(b1-6)Gal = molecular target: Gal(b1-6)Gal
# Method in brief: as §1
# Gal3S(b1-3)GalNAc = molecular target: Gal3S(b1-3)GalNAc
# Method in brief: as §1
# Gal3S(b1-3)GlcNAc = molecular target: Gal3S(b1-3)GlcNAc
# Method in brief: as §1
# [11] = molecular target: Gal3S(b1-3)[Fuc(a1-4)]GlcNAc
# Method in brief: as §1
# Gal3S(b1-4)Glc = molecular target: Gal3S(b1-4)Glc
# Method in brief: as §1
# Gal3S(b1-4)Glc6S = molecular target: Gal3S(b1-4)Glc6S
# Method in brief: as §1
# Gal3S(b1-4)GlcNAc = molecular target: Gal3S(b1-4)GlcNAc
# Method in brief: as §1
# [12] = molecular target: Gal3S(b1-4)[Fuc(a1-3)]Glc6S
# Method in brief: as §1
# [13] = molecular target: Gal3S(b1-4)[Fuc(a1-3)]GlcNAc
# Method in brief: as §1
# [14] = molecular target: Gal3S(b1-4)[Fuc(a1-3)]GlcNAc6S
# Method in brief: as §1
# Gal3S4S(b1-4)GlcNAc = molecular target: Gal3S4S(b1-4)GlcNAc
# Method in brief: as §1
# Gal3S6S(b1-4)GlcNAc = molecular target: Gal3S6S(b1-4)GlcNAc
# Method in brief: as §1
# Gal3S6S(b1-4)GlcNAc6S = molecular target: Gal3S6S(b1-4)GlcNAc6S
# Method in brief: as §1
# Gal4S(b1-4)GlcNAc = molecular target: Gal4S(b1-4)GlcNAc
# Method in brief: as §1
# Gal4S6S(b1-4)GlcNAc = molecular target: Gal4S6S(b1-4)GlcNAc
# Method in brief: as §1
# Gal6P(b1-4)GlcNAc = molecular target: Gal6P(b1-4)GlcNAc
# Method in brief: as §1
# Gal6S(b1-3)GlcNAc = molecular target: Gal6S(b1-3)GlcNAc
# Method in brief: as §1
# Gal6S(b1-3)GlcNAc6S = molecular target: Gal6S(b1-3)GlcNAc6S
# Method in brief: as §1
# Gal6S(b1-4)Glc = molecular target: Gal6S(b1-4)Glc
# Method in brief: as §1
# Gal6S(b1-4)Glc6S = molecular target: Gal6S(b1-4)Glc6S
# Method in brief: as §1
# Gal6S(b1-4)GlcNAc = molecular target: Gal6S(b1-4)GlcNAc
# Method in brief: as §1
# Gal6S(b1-4)GlcNAc6S = molecular target: Gal6S(b1-4)GlcNAc6S
# Method in brief: as §1
# GalNAc(a1-3)Gal = molecular target: GalNAc(a1-3)Gal
# Method in brief: as §1
# GalNAc(a1-3)GalNAc = molecular target: GalNAc(a1-3)GalNAc
# Method in brief: as §1
# [15] = molecular target: GalNAc(a1-3)GalNAc(b1-3)Gal(a1-4)Gal(b1-4)Glc
# Method in brief: as §1
# [16] = molecular target: GalNAc(a1-3)GalNAc(b1-3)Gal(a1-4)Gal(b1-4)GlcNAc
# Method in brief: as §1
binder,measurement,setting,value
B1,glycan array binding signal (z-score),[1],-0.014
same,glycan array binding signal (z-score),[2],-0.173
same,glycan array binding signal (z-score),[3],-0.386
same,glycan array binding signal (z-score),[4],-0.345
same,glycan array binding signal (z-score),[5],-0.421
same,glycan array binding signal (z-score),[6],-0.194
same,glycan array binding signal (z-score),[7],-0.431
same,glycan array binding signal (z-score),[8],0.245
same,glycan array binding signal (z-score),[9],-0.304
same,glycan array binding signal (z-score),[10],-0.282
same,glycan array binding signal (z-score),Gal(b1-4)GlcNAc6P,-0.209
same,glycan array binding signal (z-score),Gal(b1-6)Gal,0.305
same,glycan array binding signal (z-score),Gal3S(b1-3)GalNAc,-0.036
same,glycan array binding signal (z-score),Gal3S(b1-3)GlcNAc,0.068
same,glycan array binding signal (z-score),[11],-0.217
same,glycan array binding signal (z-score),Gal3S(b1-4)Glc,-0.021
same,glycan array binding signal (z-score),Gal3S(b1-4)Glc6S,-0.234
same,glycan array binding signal (z-score),Gal3S(b1-4)GlcNAc,-0.251
same,glycan array binding signal (z-score),[12],-0.238
same,glycan array binding signal (z-score),[13],-0.314
same,glycan array binding signal (z-score),[14],-0.281
same,glycan array binding signal (z-score),Gal3S4S(b1-4)GlcNAc,0.071
same,glycan array binding signal (z-score),Gal3S6S(b1-4)GlcNAc,-0.214
same,glycan array binding signal (z-score),Gal3S6S(b1-4)GlcNAc6S,-0.445
same,glycan array binding signal (z-score),Gal4S(b1-4)GlcNAc,-0.322
same,glycan array binding signal (z-score),Gal4S6S(b1-4)GlcNAc,-0.333
same,glycan array binding signal (z-score),Gal6P(b1-4)GlcNAc,0.286
same,glycan array binding signal (z-score),Gal6S(b1-3)GlcNAc,-0.187
same,glycan array binding signal (z-score),Gal6S(b1-3)GlcNAc6S,0.14
same,glycan array binding signal (z-score),Gal6S(b1-4)Glc,-0.253
same,glycan array binding signal (z-score),Gal6S(b1-4)Glc6S,-0.122
same,glycan array binding signal (z-score),Gal6S(b1-4)GlcNAc,0.523
same,glycan array binding signal (z-score),Gal6S(b1-4)GlcNAc6S,-0.214
same,glycan array binding signal (z-score),GalNAc(a1-3)Gal,-0.183
same,glycan array binding signal (z-score),GalNAc(a1-3)GalNAc,-0.405
same,glycan array binding signal (z-score),[15],-0.418
same,glycan array binding signal (z-score),[16],-0.138
